Whole data set: some 33,000 sequences, median “E-score (-0.5 to 0.5)” near -0.012, cut for the highest 2% near 0.29. This is one part of the list.
Biological target: T1, Ybr033w (UniProt P38073)
T1 sequence: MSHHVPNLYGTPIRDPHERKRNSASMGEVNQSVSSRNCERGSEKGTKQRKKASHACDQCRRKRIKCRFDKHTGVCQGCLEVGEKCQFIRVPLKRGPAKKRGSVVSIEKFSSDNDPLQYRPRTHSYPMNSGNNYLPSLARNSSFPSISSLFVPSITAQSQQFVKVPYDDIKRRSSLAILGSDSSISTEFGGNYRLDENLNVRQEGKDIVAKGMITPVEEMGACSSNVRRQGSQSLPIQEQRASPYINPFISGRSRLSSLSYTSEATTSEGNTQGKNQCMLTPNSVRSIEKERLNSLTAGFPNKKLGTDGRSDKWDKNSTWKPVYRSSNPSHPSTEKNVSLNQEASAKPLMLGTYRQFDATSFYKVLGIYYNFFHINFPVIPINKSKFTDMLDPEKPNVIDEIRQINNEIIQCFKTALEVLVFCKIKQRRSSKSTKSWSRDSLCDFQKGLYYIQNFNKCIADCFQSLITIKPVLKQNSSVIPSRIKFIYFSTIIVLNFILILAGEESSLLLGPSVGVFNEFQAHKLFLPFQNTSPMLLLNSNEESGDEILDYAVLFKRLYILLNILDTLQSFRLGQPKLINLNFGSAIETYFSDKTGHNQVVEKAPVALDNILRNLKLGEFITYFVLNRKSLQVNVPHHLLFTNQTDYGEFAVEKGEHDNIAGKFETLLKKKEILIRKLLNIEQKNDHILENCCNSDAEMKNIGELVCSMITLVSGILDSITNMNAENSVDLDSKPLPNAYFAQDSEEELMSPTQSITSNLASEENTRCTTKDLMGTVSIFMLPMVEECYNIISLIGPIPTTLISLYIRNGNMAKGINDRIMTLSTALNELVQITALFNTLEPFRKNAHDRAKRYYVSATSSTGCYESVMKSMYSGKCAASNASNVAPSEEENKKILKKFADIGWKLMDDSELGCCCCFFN
Assay: PBM E-score (8-mer binding enrichment) (E-score (-0.5 to 0.5)); higher = stronger / more preferred TF binding; most listed sequences are background and not binding sites
Conditions: protein concentration: 200 nM; construct: GST-full length
Outline: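 For each ungapped eight-base word taken together with its reverse complement, the Universal PBM Analysis Suite assigned an E-score. Binding data came from GST-tagged yeast transcription factors, applied at about 100-200 nM, on universal all-10-mer Agilent arrays made double-stranded by primer extension. Fluorescent anti-GST marked bound protein, and scans were normalised with masliner.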

| Sequence | PBM E-score |
| --- | --- |
| CGGGTCCA | -0.323 |
| AGGGTGCG | -0.216 |
| ACAATACA | 0.0919 |
| CGAATTAC | 0.135 |
| GCCCGCTA | -0.234 |
| TGATGACA | -0.0281 |
| TCCCGCGA | -0.135 |
| GGCGAACC | -0.19 |
| CAAAACTC | 0.166 |
| CGCCGTAG | -0.0208 |
| GAGATATC | -0.0199 |
| ACTTATGC | 0.0897 |
| GGAGGTAC | -0.0524 |
| ATGCCACA | 0.0887 |
| CCCCATTC | -0.31 |
| TAATCATA | 0.195 |
| CGAGTTCC | 0.0481 |
| GAAACTGC | -0.0174 |
| GCCGGGAC | -0.274 |
| GACGCCGA | -0.00763 |
| CCACCAGC | 0.0071 |
| AGGAGCGG | -0.359 |
| AAGGCCAC | -0.271 |
| ACCAGGGG | -0.311 |
| AAATCGAG | 0.137 |

| Sequence | PBM E-score |
| --- | --- |
| GGTTTGTA | 0.00249 |
| CGGCCTTC | -0.0472 |
| CCATGTAC | -0.0793 |
| ACTAATAC | 0.228 |
| CGCTGCAC | -0.213 |
| CTGTTAAA | 0.109 |
| GCCGTAAC | -0.16 |
| CAAGCCAC | -0.364 |
| AGACCCTA | -0.107 |
| ATTCAGCG | 0.16 |
| AAATACGC | 0.087 |
| AAGTCTTC | -0.0941 |
| GACCCACA | 0.143 |
| ACAATTCG | 0.0965 |
| AGATGTTC | 0.174 |
| CGGCACAA | -0.277 |
| AAATCCGC | -0.0825 |
| CCGCCCGA | -0.0976 |
| ATACGAAA | 0.217 |
| AACAATAC | 0.157 |
| CAGGTATC | -0.0388 |
| ATTACAAA | 0.318 |
| TCACCACA | 0.168 |
| CATTTTTC | 0.264 |
| AATGCGCA | 0.155 |

| Sequence | PBM E-score |
| --- | --- |
| AGTTACGG | -0.081 |
| CTTCGCAC | -0.0907 |
| TGGAACAA | 0.434 |
| GTCTCATA | -0.00322 |
| CAGACAGC | -0.212 |
| ACAAGAGC | -0.121 |
| GTGCGTAA | -0.0581 |
| AATTCCTG | 0.0756 |
| ATGTATTG | 0.266 |
| ACGCCGCA | 0.0755 |
| TCCCTCCA | -0.201 |
| CATAGAAG | 0.0446 |
| CAGCGGTA | 0.0201 |
| AGCCTAGA | -0.202 |
| CGTAGGGC | -0.226 |
| AATTGACA | 0.0278 |
| AAAAGCGC | 0.00073 |
| GAAATGGC | -0.11 |
| CGAGAGCC | -0.276 |
| AACTAACC | 0.21 |
| ATTGTCAA | -0.0167 |
| ACCTAAGT | 0.0693 |
| ACGGGACT | -0.183 |
| GATAAATC | 0.304 |
| CAGTTACC | -0.142 |

| Sequence | PBM E-score |
| --- | --- |
| CATTCCTA | 0.00714 |
| ACTCCTTA | 0.0278 |
| GCCCACAA | -0.114 |
| ACGGCACC | -0.298 |
| TCGAATCA | 0.104 |
| AAGTATAA | 0.152 |
| TCATTCCA | 0.125 |
| GTGCCGCA | -0.121 |
| CAATGGCG | -0.103 |
| TCGAGGCA | 0.0137 |
| AGCTCGAA | -0.13 |
| CAGCCGGA | 0.0889 |
| AATACTGC | 0.0732 |
| AGGAGTGA | 0.00659 |
| ATTAATTA | 0.387 |
| AAACTACC | 0.166 |
| CGTTTCGA | 0.0283 |
| ACGTGGCC | -0.316 |
| CAACCCGA | 0.0663 |
| ACATGGCA | -0.0807 |
| ACATTGTG | 0.00957 |
| AAACACGG | -0.167 |
| ACGCGAAG | -0.101 |
| AGAGGGGG | -0.394 |
| GACTCCCC | -0.253 |

| Sequence | PBM E-score |
| --- | --- |
| AACCCCAC | -0.343 |
| GCGGCGTA | -0.0605 |
| AACCCCAT | -0.0871 |
| CAAGCACG | -0.0015 |
| AACCTTGT | -0.194 |
| CAGGGGTA | -0.309 |
| CGCTAGCG | -0.309 |
| CGGCCCAG | -0.242 |
| CCTCGACG | -0.151 |
| ACCACTAG | 0.00592 |
| ACCGTCAT | -0.0338 |
| TCTTCCCA | -0.144 |
| AAGAATGA | 0.103 |
| GCGACAGC | -0.16 |
| AAGATGCT | 0.103 |
| ACTCCAGC | -0.148 |
| CCAATCCA | -0.159 |
| CCCGTCCG | -0.371 |
| AATTGTCT | 0.117 |
| CAATTTTA | 0.217 |
| AGGGTTGG | 0.00207 |
| TACCGATA | 0.116 |
| GCGGACAC | -0.0788 |
| GCCTATAA | -0.0961 |
| AACCCAGC | -0.0856 |

| Sequence | PBM E-score |
| --- | --- |
| GCCTCAGA | -0.183 |
| CGAACTCC | 0.0608 |
| CAACCCCG | -0.0896 |
| AGAATTTG | 0.227 |
| GTGTCAAC | -0.184 |
| AAAGCTGG | -0.0749 |
| GTAGGAAA | 0.0603 |
| ATATATAC | 0.245 |
| CATTCAAA | 0.232 |
| AGCTCCCG | -0.343 |
| GCTCCGTA | -0.0392 |
| CACAGTCG | -0.125 |
| ATGCAACA | 0.0432 |
| TATATCCA | 0.251 |
| AACCAGGG | -0.155 |
| CAGTTCGC | -0.0117 |
| GAAATCAA | 0.205 |
| AATAAAGC | 0.142 |
| CATATTGG | 0.137 |
| CTTGGCGC | -0.0103 |
| CGATAGAA | 0.133 |
| ACCGGAGG | -0.176 |
| AGACCCCA | 0.0359 |
| ACGGATCG | -0.126 |
| ACAGAGGA | 0.00174 |

| Sequence | PBM E-score |
| --- | --- |
| TGAGCCCA | -0.0977 |
| ATGAGACG | -0.0314 |
| AGGATCGG | -0.141 |
| AGACCCGC | -0.18 |
| TAAATCAA | 0.179 |
| GATCAGCA | -0.0108 |
| AGCAACAG | 0.0436 |
| CGCGTCTA | -0.0265 |
| GCTCCGGA | 0.0838 |
| ACGGTCTA | -0.122 |
| TGCTTACA | 0.025 |
| GCACGGAC | -0.15 |
| ACGTATTG | 0.0237 |
| CATTACTA | 0.119 |
| ATACGCCC | -0.15 |
| GAGGGGGC | -0.339 |
| CAAGCAGC | -0.0931 |
| ATCCACGA | 0.0164 |
| AGGTTCTA | -0.0332 |
| ACAAGAGT | 0.0822 |
| ATAAGAAG | 0.0674 |
| ATGTTCAG | -0.137 |

From the supplement of paper PMC3334620
